Assay [1] concerns the target T1, G6B-b pY237 phosphopeptide (biotinylated 60-mer, amino acids 182 to 241, ITSM phosphorylated) (human) (UniProt O95866).
T1 sequence (peptide, phosphotyrosine at 237; biotin (end not stated)): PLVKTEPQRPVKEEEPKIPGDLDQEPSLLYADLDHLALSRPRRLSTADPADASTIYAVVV
As to the kind of experiment: pull-down; biotinylated G6B-b peptides on Streptactin beads incubated with pre-cleared NP-40 lysate of washed human platelets activated with 1 ug/ml CRP for 90 seconds, 4°C, 30 minutes; Western blotting; only the target purified. For orientation: A western blot detects proteins with antibodies after separation by electrophoresis.

In assay [2] the target is T2, G6B-b pY211 phosphopeptide (biotinylated 60-mer, amino acids 182 to 241, ITIM phosphorylated) (human) (UniProt O95866).
T2 sequence (peptide, phosphotyrosine at 211; biotin (end not stated)): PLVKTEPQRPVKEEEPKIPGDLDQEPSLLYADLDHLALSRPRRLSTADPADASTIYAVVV
As to the kind of experiment: pull-down; direct pull down assay: peptide on Streptactin beads incubated with equimolar purified SH2 domains (100 pM [sic] each for the tandem SH2 domains), 250 µl PBS, 30 minutes, room temperature; bound and unbound fractions on Coomassie-stained gels; both purified.

Assay [3] deals with T1, G6B-b pY237 phosphopeptide (biotinylated 60-mer, amino acids 182 to 241, ITSM phosphorylated) (human). Described as above.

Binding data for two molecules are collected here from PMC3501490, “An Investigation of Hierachical Protein Recruitment to the Inhibitory Platelet Receptor, G6B-b” (PLoS ONE, 2012).

No constants are given. Whether binding was seen depends on the method and setting. For part of these data: Binding seen in cells or lysates may run through a third protein. Some binding calls cover weakened binding; strength is not graded here.

B1: PLCγ2 (endogenous, human platelets) (enzyme, UniProt P16885 1-1265)
chain: MSTTVNVDSLAEYEKSQIKRALELGTVMTVFSFRKSTPERRTVQVIMETRQVAWSKTADKIEGFLDIMEIKEIRPGKNSKDFERAKAVRQKEDCCFTILYGTQFVLSTLSLAADSKEDAVNWLSGLKILHQEAMNASTPTIIESWLRKQIYSVDQTRRNSISLRELKTILPLINFKVSSAKFLKDKFVEIGAHKDELSFEQFHLFYKKLMFEQQKSILDEFKKDSSVFILGNTDRPDASAVYLHDFQRFLIHEQQEHWAQDLNKVRERMTKFIDDTMRETAEPFLFVDEFLTYLFSRENSIWDEKYDAVDMQDMNNPLSHYWISSSHNTYLTGDQLRSESSPEAYIRCLRMGCRCIELDCWDGPDGKPVIYHGWTRTTKIKFDDVVQAIKDHAFVTSSFPVILSIEEHCSVEQQRHMAKAFKEVFGDLLLTKPTEASADQLPSPSQLREKIIIKHKKLGPRGDVDVNMEDKKDEHKQQGELYMWDSIDQKWTRHYCAIADAKLSFSDDIEQTMEEEVPQDIPPTELHFGEKWFHKKVEKRTSAEKLLQEYCMETGGKDGTFLVRESETFPNDYTLSFWRSGRVQHCRIRSTMEGGTLKYYLTDNLTFSSIYALIQHYRETHLRCAEFELRLTDPVPNPNPHESKPWYYDSLSRGEAEDMLMRIPRDGAFLIRKREGSDSYAITFRARGKVKHCRINRDGRHFVLGTSAYFESLVELVSYYEKHSLYRKMRLRYPVTPELLERYNMERDINSLYDVSRMYVDPSEINPSMPQRTVKALYDYKAKRSDELSFCRGALIHNVSKEPGGWWKGDYGTRIQQYFPSNYVEDISTADFEELEKQIIEDNPLGSLCRGILDLNTYNVVKAPQGKNQKSFVFILEPKQQGDPPVEFATDRVEELFEWFQSIREITWKIDTKENNMKYWEKNQSIAIELSDLVVYCKPTSKTKDNLENPDFREIRSFVETKADSIIRQKPVDLLKYNQKGLTRVYPKGQRVDSSNYDPFRLWLCGSQMVALNFQTADKYMQMNHALFSLNGRTGYVLQPESMRTEKYDPMPPESQRKILMTLTVKVLGARHLPKLGRSIACPFVEVEICGAEYDNNKFKTTVVNDNGLSPIWAPTQEKVTFEIYDPNLAFLRFVVYEEDMFSDPNFLAHATYPIKAVKSGFRSVPLKNGYSEDIELASLLVFCEMRPVLESEEELYSSCRQLRRRQEELNNQLFLYDTHQNLRNANRDALVKEFSVNENQLQLYQEKCNKRLREKRVSNSKFYS
With B1, the binding result in assay [1] is listed as “binds”.

B2: Csk SH2 domain (domain or fragment, UniProt P41240 82-171)
chain: WFHGKITREQAERLLYPPETGLFLVRESTNYPGDYTLCVSCDGKVEHYRIMYHASKLSIDEEVYFENLMQLVEHYTSDADGLCTRLIKPK
For the molecule B2, the binding entry in assay [2] and in assay [3] was “no binding” in each case.
